Inconclusive means that the source gave no clear call. Such entries were picked first, then a sample of the others. No potency is given beside an inconclusive call; the fits are too rough. Calls of active or inactive are those of the source. Calls follow the shape of the dose curve; as a rule, active = well fitted inhibition curve with a large enough effect; inconclusive = small, poorly fitted or top-dose-only effect; inactive = no such curve, though single readings can be large or run the other way.
Assay: InCell qHTS Assay for Inhibitors of the mTORC1 Signaling Pathway in MEF (Tsc2-/-, p53-/-) Cells: Hit Validation;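 also: phospho-S6 Ser235/236 signal normalized to propidium iodide cell count per well; nearly all actives have a fitted effect of over 75% in size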
Settings: phospho-rpS6 immunofluorescence, 24 h
Potency is read from the fitted curve at half-maximal effect; tags tell the direction and shape of the fitted curve.

Row | SMILES | Potency
1 | Cc1ccc(NC(=O)c2nc(S(=O)(=O)Cc3cccc(C)c3)ncc2Cl)cc1 | active: 14.7 µM
2 | Cc1cc(C)cc(C(=O)Nc2ccc(-c3nc4ncccc4o3)cc2)c1 | inconclusive [inhibitor, single point]
3 | Cc1ccc(C)c(N2CCN(CCCNC(=O)Nc3ccc(Cl)cc3)CC2)c1 | inconclusive [inhibitor, single point]
4 | COc1cc(OC)c(NC(=O)Nc2ccc3c(c2)N(C)C(=O)c2ccccc2S3)cc1Cl | active: 13.1 µM
5 | COc1ccc(Cl)cc1NC(=O)c1c(NCc2cccnc2)sc2c1CCC(C)C2 (stereo not drawn) | inconclusive [inhibitor, single point]
6 | Cc1cccc(C(=O)Nc2c(C(=O)NCc3ccc(Cl)cc3)sc3nc(C)cc(C)c23)c1 | inconclusive [inhibitor, partial curve, poor fit]
7 | CCS(=O)(=O)c1oc(-c2ccc(F)cc2)nc1S(=O)(=O)c1ccccc1 | active: 0.736 µM
8 | Cc1c(Cl)cccc1-c1ccc(C(=O)Nc2ccc3oc(-c4cccnc4)nc3c2)o1 | inconclusive [inhibitor, single point]
9 | Cc1cc(NC(=O)c2ccc(NC(=O)CCS(=O)(=O)c3cccs3)cc2)ccc1Br | inconclusive [inhibitor, single point]
10 | CC(C)S(=O)(=O)c1oc(-c2cccs2)nc1S(=O)(=O)c1ccc(F)cc1 | active: 1.47 µM
11 | Cc1ccccc1CS(=O)(=O)c1ncc(Cl)c(C(=O)Nc2nnc(C(C)C)s2)n1 | active: 18.5 µM
12 | O=S(=O)(NCC(c1ccco1)S(=O)(=O)c1cccs1)c1ccc(Cl)cc1 (stereo not drawn) | inconclusive [inhibitor, single point]
13 | CCOc1ccc(CNC(=O)c2ccccc2NC(=O)c2nsc3ccccc23)cc1 | inconclusive [inhibitor, single point]
14 | CCN(CC)CCOC(=O)c1ccc(NC(=O)c2nn(-c3ccc(C)cc3)c(=O)c3c2c2ccccc2n3C)cc1 | active: 3.29 µM
15 | Cc1cccc(N2CCN(CCNC(=O)Nc3ccc(Cl)cc3)CC2)c1C | inconclusive [inhibitor, single point]
16 | COc1ccc(CNC(=O)c2cc(-c3ccc(OC)c(OC)c3)nc3n[nH]c(-c4ccc(C)cc4)c23)cc1 | inconclusive [inhibitor, single point]
17 | COC(=O)c1ccccc1NC(=O)c1nc(S(=O)(=O)Cc2cccc(C)c2)ncc1Cl | active: 3.69 µM
18 | COc1ccc(-c2nc3cc(NC(=O)Cc4ccc(Cl)cc4)ccc3o2)cc1OC | inconclusive [inhibitor, single point]
19 | CCN(CC)CCNC(=O)c1cc(-c2ccc(Br)s2)nc2ccccc12 | inconclusive [inhibitor, single point]
20 | CCCCN(C)CC(O)Cn1cc(/C=C/C(=O)c2ccc(C)cc2)c2ccccc21 (stereo not drawn) | inconclusive [inhibitor, single point]
21 | N=c1n(CCN2CCCCC2)c2ccccc2n1CC(O)COc1ccc(Cl)cc1Cl (stereo not drawn) | inconclusive [inhibitor, single point]
22 | Cc1ccc(-c2nc3ccccn3c2Nc2c(C)cccc2C)o1 | inconclusive [inhibitor, single point]
23 | O=C(CCS(=O)(=O)c1ccccc1)N(Cc1cccnc1)c1nc2c(F)cccc2s1 | inconclusive [inhibitor, single point]
24 | O=C(CCS(=O)(=O)c1nc(-c2cccs2)cc(C(F)(F)F)n1)Nc1cccc(O)c1 | inconclusive [inhibitor, single point]
25 | CCN(CCN(C)C)C(=O)C1CCN(S(=O)(=O)c2c(C)noc2/C=C/c2ccccc2F)CC1 | inconclusive [inhibitor, single point]
26 | Cc1ccc2nc(-c3cccc(NC(=O)c4cccc5ccccc45)c3)oc2c1 | inconclusive [inhibitor, single point]
27 | CCCC(=O)OC1=CN(Cc2ccccc2)S(=O)(=O)c2ccccc21 | inconclusive [inhibitor, single point]
28 | Cc1ccc(CN2C(=O)C(=O)c3cc(Br)cc(C)c32)cc1 | active: 18.5 µM

— PubChem BioAssay AID651791 (National Center for Advancing Translational Sciences (NCATS), 2012)
